# Measurements taken from paper PMC10726135.
# The list shows a part of the results. At the low end of the ranking the order means little. Measured with an extract: partners may take part in the binding.
# Target: T1, HNF4alpha2 (COS-7 nuclear extract) (UniProt P41235)
# T1 sequence: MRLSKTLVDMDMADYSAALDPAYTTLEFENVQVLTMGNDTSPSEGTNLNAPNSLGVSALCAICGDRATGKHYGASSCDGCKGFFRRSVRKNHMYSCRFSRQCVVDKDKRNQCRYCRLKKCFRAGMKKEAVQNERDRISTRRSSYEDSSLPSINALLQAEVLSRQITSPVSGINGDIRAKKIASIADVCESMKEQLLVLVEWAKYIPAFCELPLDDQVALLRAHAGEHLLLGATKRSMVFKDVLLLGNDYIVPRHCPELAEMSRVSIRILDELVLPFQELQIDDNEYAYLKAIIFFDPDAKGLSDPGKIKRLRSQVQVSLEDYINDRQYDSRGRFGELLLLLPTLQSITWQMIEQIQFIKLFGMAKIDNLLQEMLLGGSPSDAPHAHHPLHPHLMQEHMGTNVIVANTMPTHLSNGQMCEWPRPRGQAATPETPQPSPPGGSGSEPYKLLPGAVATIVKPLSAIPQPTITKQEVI
# Assay: protein-binding microarray
# Settings: COS-7 nuclear extract on double-stranded Agilent 4x180k PBM; binding buffer, salt, pH and temperature not given; high values mean tight binding; double strand, one strand shown; sequences stand for … in …GCCTAGGGAGATTAGAGTATCGGTCGA
row,Sequence,binding signal (log2 normalized intensity)
1,ACCTGCTTGTTTTCCCAACAGGTGTTAAAA,0.0617
2,AAGGTGTATGTGGACTTTCAACTGCAGGGG,3.47
3,AACTTTATCAAGACTGCAGCCAGGGGCGTA,-1.07
4,CGCGCAGCCAATAGGCGAGGACGCAGTCCC,-0.78
5,AAGCATAACTGTATAACCTGGAACTGAAAG,-0.938
6,ACCCGGCAGGCGGGAAAGAAGGCTGGTTTA,-1.12
7,TTCCGGATAGCCAAATAGCCTGGTCACTCA,-1.22
8,ACTTAGAATTTCATTTTGCTCTTTGTTCAG,2.74
9,AAATATTTGGTGAATAAACAAATAATGGCT,-1.22
10,CTGATGCCCTTTGGATTTAGGCAGTTTTTG,2.42
11,GTCTAACCGCAGCAAGACACTTCCAGCCAA,-1.18
12,GGTAATCACCAAACTTCACAATGGGCCCCA,-1.17
13,AAATGTGAATGGACTCTGCCCTTAGCAGTG,4.37
14,CAGTATTGATGTGAGGGTAGGAGCCTAGCT,-1.13
15,ATAATGCCAGGCAGGAAGGAGCCTGCTTTG,-1.15
16,GACCTTTCTTTATGGACCTTGTCCCTGGAT,4.55
17,CACCAGAGGGAACGCCCGACGCGAAGGCAG,-0.973
18,AACTGTCCAGGCTGCACAGTGGGGAGGGCA,-1.15
19,AATAGGGGCTGGGTAAAATGAGAATGAGAC,-1.09
20,CACTTCTCTCTCCAAGGCACAGAGAAGAAT,-1.07
21,TTGCAGTGGCAAGGCAAAAGAGACAGGACT,-1.1
22,ATAGCTGTTCATTAGACTCAGGGAACTCCC,0.649
23,CAAACAGACCTCCCCCAACTTACTTAGTGG,1.85
24,AGTGGCAACCCTTGACCCCAGTAACAAAGG,4.33
25,GTTAGGAAACACTCTGTTTGTAAAGTCTAC,0.577

row,Sequence,binding signal (log2 normalized intensity)
1,GCAATTACTCAATAACCACATGAATACACA,0.0621
2,AGGCTCCCTGCTGCGGAGAGTTCCCTTGGA,-1.12
3,GGGGTCTAGAACAGCTCCTTTGAAGCTTCG,-1.08
4,GACCGGTTCCGCGGTCCGCAGCGCTGGTGG,-1.18
5,AAACTGAGATCTAAGCGATAAGGAGGAAGG,-1.25
6,GCAGGCAGGGACTTTGGCCCACGGTCCTTT,2.39
7,CAGTGAGACAGAAGTAAAACAGGTAGAGAG,-1.27
8,ATATACTGTGTATACAAAGATCAGTGTACT,0.786
9,ATCTCAAATAGCTGGGTCTCACTCTGACCC,3.32
10,CTGCTGGTTTTTGTCAAAGATAGTTGTAGT,2.1
11,TGGGGACGCCCACTGCTTTGTTCCCTGGCT,-1.13
12,CAGGGTCGGAATGTCTGGGCAAAGGGGAGG,-1.09
13,CTTCAGCCTCCCGAGTAGTTGGGTCAACAG,1.82
14,GTAGGAAGGCTTTGAAGTCTGGTGGCAAGT,0.622
15,CTCTCCTGAGGCAAGTCTCTTTTAGGCTGT,1.48
16,TCACAGGAATGTTGGCAGCATCGTGTTGGG,1.03
17,CACTAATTAACTGAGCCTCAGAACCATTTG,-0.908
18,CATACTCAAAGAATTTAACACCAGATAAAC,-1.13
19,GAAGCTGGTAGCATGGCTCAGTCCAAGTCC,-0.166
20,GCCTTTAGGGCCCCCTGTGATTACTTCCAC,1.84
21,AGCGGGGGACCGAGAGCCGCCGCCGTGGGA,-1.08
22,TGGTGCAAATACCATCCCCAGAGCCGGAGC,3.27
23,TCCCCTGACAGCATGTTCGGCTGAGACCTG,0.132
24,TTGGTGACCAGTCTGCCTGACTCCAGAGTC,-0.936
25,AAATACACAGGTAAACATTTGCCTTTAGGG,-0.512

row,Sequence,binding signal (log2 normalized intensity)
1,GAATATTCAGATATTCCTGGAATGACAAGA,0.642
2,AAAGGTCATTTCTGCTTGCAACCAAAGGAG,1.52
3,AAGCAGGACAGCAGAGTGGAGGCCAGCGCC,-1.09
4,GTCCAGACACAAAGAGACAAAGCTTTGAAG,-1.1
5,AGAGTTAGGGCCTTGCTATGGAGTGGACTT,3.25
6,GTGTTCCAGAGCCTCCAAAGTCCGCTTGCC,0.799
7,TAGCTTGGTGCAGGGGCGGGGCCGCGCGTC,-1.12
8,CGTATTATCTTATCTCCTCTGTAGGGCAGC,1.63
9,CTGCTCTGTTTTCTTTCGGTCACCCACACA,1.65
10,TCTCTTCTTCCCCTCCTTCAGGTCAAGAGG,2.58
11,GTCCATCCTGTCTCACCAGACCAAGAGCTT,-0.911
12,AGGAAGCATCCTATAGGCCTATAATTAGGT,-1.06
13,TCCTCTGGATACCCTTCCCCCCAAGGCTTC,5.27
14,TAGGCCAGGCGGAGCACACCAGGCCCTCGG,-0.933
15,AATGATCTTGGCTGCTTTAGACATGAGATA,-0.202
16,CTGCCTCTTCAGGAGGCACTGATAAGCGTA,-1.1
17,GGACAGGAGCTCATACCTCTTACCAGATAG,-1.14
18,TCACAATGGGGCATGACTTGTTATCACCTG,0.82
19,AGAGCAGGGCCCGAGGCCTTGAGCATACAA,-1.04
20,CCTTTGTCTCCAGGCAAACTACAGTTTCTG,-0.0604
21,AGTTGTTGTGAGAGTGAGGTGACTTGTCCT,1.86
22,AACCTCCTCCAGGTTCTCATACCTTCTGCT,-1.13
23,TAAGATTTGGAAAATATTGCCAATATCTGC,-1.21
